Measured values as given in US10738083B2, “Influenza virus neutralizing peptidomimetic compounds” (Janssen Vaccines & Prevention B.V., priority 2015, dated 2020).
Not every detail of the peptide structures is certain; ends, links or a residue may be inferred. For at least one compound, name, drawing or mass did not settle the structure. *1 amine or outer side, *2 acyl side, *3 side chain or, on linkers, in order; H or OH if unused. Where a SMILES comes first, the peptide text is derived from it. Bridges are numbered along the chain shown (N, C = ends). Roman numbers before positions name the chains, in order. [ ]: non-standard residue; d: D form. CO(CH2CH2O)13CH2CH2CO = O=C(CCOCCOCCOCCOCCOCCOCCOCCOCCOCCOCCOCCOCCOCCC(=O)[*:2])[*:1]; Phe(3,4-Cl2) = N[C@@H](Cc1ccc(Cl)c(Cl)c1)C(=O)O; X2 = O=C(CN(CC(=O)[*:2])CC(=O)[*:3])[*:1]; Ala(cPent) = N[C@@H](CC1CCCC1)C(=O)O; Glutaryl = O=C(CCCC(=O)[*:2])[*:1]; hhPhe = N[C@@H](CCCc1ccccc1)C(=O)O; NMeL = CN[C@@H](CC(C)C)C(=O)O; Orn = NCCC[C@H](N)C(=O)O; βAla = NCCC(=O)O

How the values were obtained:
Calu-3 cells = assay type: cell-based, human
H1N1 A/California/07/09 = assay type: cell-based, influenza A virus
[1] = system: H1N1 A/New Caledonia/20/99; assay type: cell-based, influenza A virus
H5N1 A/Vietnam/1194/04 = assay type: cell-based, influenza A virus
H1 HA A/Brisbane/59/07 = H1 HA A/Brisbane/59/07 (Influenza A virus, UniProt D5F1Q8); experiment: AlphaLISA binding competition, HA + stem-binder; details: averages of pIC50
Excerpt: (§1) Binding competition studies were designed to test compounds for competition with other well characterized HA binding proteins (including e.g. CR9114) with known epitopes on HA. The epitopes where either located at the stem of the HA (viral membrane proximal part of HA) or, for control purposes, at the head of HA (viral membrane distal part of HA). If competition was observed, it is assumed that both molecules bind to a similar or at least overlapping epitope at the surface of HA. Competition with a HA head- and stem-binder was interpreted as unspecific binding.
(§2) Hereto an AlphaLISA competition assay (Perkin Elmer) was established which relied on biotinylated full length and trimeric HA proteins (Protein Sciences, 10 μL, 0.5 nM final concentration in 50 μL) bound by HA-specific binders. The interaction between HA and the binder was detected after 1 h incubation at room temperature (RT) with two beads, a streptavidin donor bead recognizing HA (10 μL of 10 μg/mL) and an anti Fc bead (10 μg/mL) recognizing the IgGs used. If after an additional hour of incubation at RT the excited donor bead (680 nm) and acceptor bead are in close proximity, an energy transfer (singlet oxygen) can be measured as a luminescence signal of the acceptor bead (Perkin Elmer EnVision plate reader). The signal intensity in this homogeneous assay format is directly proportional to the binding strength (affinity/avidity) between both binding partners.

[2] = target: T1, H1 HA A/California/07/2009 (Influenza A virus, UniProt C3W5X2); experiment: AlphaLISA binding competition, HA + stem-binder; details: averages of pIC50
Excerpt: as §1, §2

[3] = target: H1 HA A/New Caledonia/20/1999 (Influenza A virus, UniProt Q6WG00); experiment: AlphaLISA binding competition, HA + stem-binder; details: averages of pIC50
Excerpt: as §1, §2

[4] = target: T1, H1 HA A/California/07/2009; experiment: AlphaLISA binding competition, HA + head-binder (control); details: averages of pIC50
Excerpt: as §1
as §2, with “The signal intensity in this homogeneous assay format is directly proportional to the binding strength (affinity/avidity) between both binding partners.” left out

[5] = target: H1 HA A/South Carolina/20/18 (Influenza A virus, UniProt Q9WFX3); assay type: binding
H5 HA A/Vietnam/1203/04 = H5 HA A/Vietnam/1203/04 (Influenza A virus, UniProt Q5EP31); assay type: binding
H2 HA A/Singapore/1/57 = H2 HA A/Singapore/1/57 (Influenza A virus, UniProt Q67123); assay type: binding

CC(=O)N[C@@H](CCCc1ccccc1)C(=O)N[C@H]1CCCNC(=O)CCNC(=O)[C@H](CO)NC(=O)[C@H](CC(C)C)NC(=O)[C@H](Cc2c[nH]c3ccccc23)NC(=O)[C@H](CCC(=O)O)NC(=O)[C@H](Cc2ccccc2)NC(=O)[C@H](Cc2ccc(O)cc2)NC(=O)[C@H](CCCNC(=N)N)NC(=O)[C@H](CC(C)C)NC1=O [CP132070] (Ac-[hhPhe][Orn]LRYFEWLS[βAla]; lactam 2-C)
Toxicity (pIC50) (Calu-3 cells): <4.00 | VNA H1N1 A/California/07/09 (pIC50) (H1N1 A/California/07/09): <4.00 | VNA H1N1 A/New Caledonia/20/99 (pIC50) [1]: 4.08 | VNA H5N1 A/Vietnam/1194/04 (pIC50) (H5N1 A/Vietnam/1194/04): 4.42

CC(=O)N[C@@H](CCCc1ccccc1)C(=O)N[C@H]1CCCNC(=O)CCNC(=O)[C@H](CO)NC(=O)[C@H](CC(C)C)NC(=O)[C@H](Cc2c[nH]c3ccccc23)NC(=O)[C@H](CCC(=O)O)NC(=O)[C@H](Cc2ccc(Cl)c(Cl)c2)NC(=O)[C@H](Cc2ccc(O)cc2)NC(=O)[C@H](CCC(=O)O)NC(=O)[C@H](CC(C)C)NC1=O [CP141019] (Ac-[hhPhe][Orn]LEY[Phe(3,4-Cl2)]EWLS[βAla]; lactam 2-C)
Toxicity (pIC50) (Calu-3 cells): <4.00 | VNA H1N1 A/California/07/09 (pIC50) (H1N1 A/California/07/09): 7.66 | VNA H1N1 A/New Caledonia/20/99 (pIC50) [1]: 7.16 | VNA H5N1 A/Vietnam/1194/04 (pIC50) (H5N1 A/Vietnam/1194/04): 7.09

CC(=O)N[C@@H](CCCNC(=N)N)C(=O)N[C@H]1CCCNC(=O)CN2CC(=O)NCCC[C@@H](C(N)=O)NC(=O)[C@H](CO)NC(=O)[C@H](CC(C)C)NC(=O)[C@H](Cc3c[nH]c4ccccc34)NC(=O)[C@H](CCC(=O)O)NC(=O)[C@H](Cc3ccccc3)NC(=O)[C@H](Cc3ccc(O)cc3)NC(=O)[C@H](CCCNC(=O)C2)NC(=O)[C@H](CC(C)C)NC1=O [CP141032] (Ac-R[Orn]L[Orn]YFEWLS[Orn]-NH2; linker 2-4-11 via X2)
Toxicity (pIC50) (Calu-3 cells): <4.00 | VNA H1N1 A/New Caledonia/20/99 (pIC50) [1]: 4.23 | VNA H5N1 A/Vietnam/1194/04 (pIC50) (H5N1 A/Vietnam/1194/04): <4.00

CC(=O)N[C@@H](CCCc1ccccc1)C(=O)N[C@H]1CCCNC(=O)CCNC(=O)[C@H](CO)NC(=O)[C@H](CC(C)C)NC(=O)[C@H](Cc2c[nH]c3ccccc23)NC(=O)[C@H](CCC(=O)O)NC(=O)[C@H](Cc2ccccc2)NC(=O)[C@H](Cc2ccc(O)cc2)NC(=O)[C@H](CCC(=O)O)NC(=O)[C@H](CC2CCCC2)NC1=O [CP141036] (Ac-[hhPhe][Orn][Ala(cPent)]EYFEWLS[βAla]; lactam 2-C)
Toxicity (pIC50) (Calu-3 cells): <4.00 | VNA H1N1 A/California/07/09 (pIC50) (H1N1 A/California/07/09): 4.02 | VNA H1N1 A/New Caledonia/20/99 (pIC50) [1]: 5.86 | VNA H5N1 A/Vietnam/1194/04 (pIC50) (H5N1 A/Vietnam/1194/04): 6.77

CC(=O)N[C@@H](CCCc1ccccc1)C(=O)N[C@H]1CCCNC(=O)CCNC(=O)[C@H](CO)NC(=O)[C@H](CC(C)C)NC(=O)[C@H](Cc2c[nH]c3ccccc23)NC(=O)[C@H](CCC(=O)O)NC(=O)[C@H](Cc2ccccc2)NC(=O)[C@H](Cc2ccc(O)cc2)NC(=O)[C@H](CCC(=O)O)NC(=O)[C@H](CC(C)C)N(C)C1=O [CP141037] (Ac-[hhPhe][Orn][NMeL]EYFEWLS[βAla]; lactam 2-C)
Toxicity (pIC50) (Calu-3 cells): <4.00 | VNA H1N1 A/California/07/09 (pIC50) (H1N1 A/California/07/09): 4.13 | VNA H1N1 A/New Caledonia/20/99 (pIC50) [1]: 6.29 | VNA H5N1 A/Vietnam/1194/04 (pIC50) (H5N1 A/Vietnam/1194/04): 6.17

CC(=O)N[C@@H](CCCc1ccccc1)C(=O)N[C@H]1CCCNC(=O)CCNC(=O)[C@H](CO)NC(=O)[C@H](CC(C)C)NC(=O)[C@H](Cc2c[nH]c3ccccc23)NC(=O)[C@H](CCC(=O)O)NC(=O)[C@H](Cc2ccccc2)NC(=O)[C@H](Cc2ccc(O)cc2)NC(=O)[C@H](CCCCNC(=O)CCCC(=O)O)NC(=O)[C@H](CC(C)C)NC1=O [CP141066] (Ac-[hhPhe][Orn]LK(Glutaryl)YFEWLS[βAla]; lactam 2-C)
Toxicity (pIC50) (Calu-3 cells): <4.00 | VNA H1N1 A/California/07/09 (pIC50) (H1N1 A/California/07/09): <4.00 | VNA H1N1 A/New Caledonia/20/99 (pIC50) [1]: 4.38 | VNA H5N1 A/Vietnam/1194/04 (pIC50) (H5N1 A/Vietnam/1194/04): 4.32

CC(=O)N[C@@H](CCCc1ccccc1)C(=O)N[C@H]1CCCNC(=O)CCNC(=O)[C@H](CCC(N)=O)NC(=O)[C@H](CC(C)C)NC(=O)[C@H](Cc2c[nH]c3ccccc23)NC(=O)[C@H](CCC(=O)O)NC(=O)[C@H](Cc2ccccc2)NC(=O)[C@H](Cc2ccc(O)cc2)NC(=O)[C@H](CCC(=O)O)NC(=O)[C@H](CC(C)C)NC1=O [CP141077] (Ac-[hhPhe][Orn]LEYFEWLQ[βAla]; lactam 2-C)
pIC50, competition for binding, A/Brisbane/59/07 HA + Stem-binder (H1 HA A/Brisbane/59/07): 6.59 | pIC50, competition for binding, A/California/07/2009 HA + Stem-binder [2]: 6.37 | pIC50, competition for binding, A/New Caledonia/20/1999 HA + Stem-binder [3]: 6.75 | pIC50, competition for binding, A/California/07/2009 HA + Head-binder [4]: <4.30 | pIC50, competition for binding, A/South Carolina/20/18 HA + Stem-binder [5]: 6.29 | pIC50, competition for binding, A/Vietnam/1203/04 HA + Stem-binder (H5 HA A/Vietnam/1203/04): 6.65 | pIC50, competition for binding, H2 A/Singapore/1/57 HA + Stem-binder (H2 HA A/Singapore/1/57): 5.53 | Toxicity (pIC50) (Calu-3 cells): <4.00 | VNA H1N1 A/California/07/09 (pIC50) (H1N1 A/California/07/09): 4.25 | VNA H1N1 A/New Caledonia/20/99 (pIC50) [1]: 4.98 | VNA H5N1 A/Vietnam/1194/04 (pIC50) (H5N1 A/Vietnam/1194/04): 5.35

CC(=O)N[C@@H](CCCc1ccccc1)C(=O)N[C@H]1CCCNC(=O)CCNC(=O)[C@H](CO)NC(=O)[C@H](CC(C)C)NC(=O)[C@H](Cc2c[nH]c3ccccc23)NC(=O)[C@H](CCC(=O)O)NC(=O)[C@H](Cc2ccccc2)NC(=O)[C@H](Cc2ccc(O)cc2)NC(=O)[C@H](CCCCNC(=O)CCOCCOCCOCCOCCOCCOCCOCCOCCOCCOCCOCCOCCOCCC(=O)NCCCC[C@@H]2NC(=O)[C@H](CC(C)C)NC(=O)[C@@H](NC(=O)[C@H](CCCc3ccccc3)NC(C)=O)CCCNC(=O)CCNC(=O)[C@H](CO)NC(=O)[C@H](CC(C)C)NC(=O)[C@H](Cc3c[nH]c4ccccc34)NC(=O)[C@H](CCC(=O)O)NC(=O)[C@H](Cc3ccccc3)NC(=O)[C@H](Cc3ccc(O)cc3)NC2=O)NC(=O)[C@H](CC(C)C)NC1=O [CP141100] (I: Ac-[hhPhe][Orn]LKYFEWLS[βAla] / II: Ac-[hhPhe][Orn]LKYFEWLS[βAla]; lactam I:2-I:C, II:2-II:C (inferred); linker I:4-II:4 via CO(CH2CH2O)13CH2CH2CO (inferred))
pIC50, competition for binding, A/Brisbane/59/07 HA + Stem-binder (H1 HA A/Brisbane/59/07): 5.88 | pIC50, competition for binding, A/California/07/2009 HA + Stem-binder [2]: 6.24 | pIC50, competition for binding, A/New Caledonia/20/1999 HA + Stem-binder [3]: 6.19 | pIC50, competition for binding, A/California/07/2009 HA + Head-binder [4]: <4.30 | pIC50, competition for binding, A/South Carolina/20/18 HA + Stem-binder [5]: 5.13 | pIC50, competition for binding, A/Vietnam/1203/04 HA + Stem-binder (H5 HA A/Vietnam/1203/04): 6.76 | pIC50, competition for binding, H2 A/Singapore/1/57 HA + Stem-binder (H2 HA A/Singapore/1/57): 4.53 | Toxicity (pIC50) (Calu-3 cells): <4.00 | VNA H1N1 A/California/07/09 (pIC50) (H1N1 A/California/07/09): 7.49 | VNA H1N1 A/New Caledonia/20/99 (pIC50) [1]: 7.60 | VNA H5N1 A/Vietnam/1194/04 (pIC50) (H5N1 A/Vietnam/1194/04): 7.80
